This passage reports enrichment ratio results from a collection of fitness landscapes (doi:10.1126/science.1257360).

This is one part of the list.

B1: PhoQ; a variant is named by its letters at X, in order, P23837 (parent)
chain: MKKLLRLFFPLSLRVRFLLATAAVVLVLSLAYGMVALIGYSVSFDKTTFRLLRGESNLFYTLAKWENNKLHVELPENIDKQSPTMTLIYDENGQLLWAQRDVPWLMKMIQPDWLKSNGFHEIEADVNDTSLLLSGDHSIQQQLQEVREDDDDAEMTHSVAVNVYPATSRMPKLTIVVVDTIPVELKSSYMVWSWFIYVLSANLLLVIPLLWVAAWWSLRPIEALAKEVRELEEHNRELLNPATTRELTSLVRNLNRLLKSERERYDKYRTTLTDLTHSLKTPLXXLQXXLRSLRSEKMSVSDAEPVMLEQISRISQQIGYYLHRASMRGGTLLSRELHPVAPLLDNLTSALNKVYQRKGVNISLDISPEISFVGEQNDFVEVMGNVLDNACKYCLEFVEISARQTDEHLYIVVEDDGPGIPLSKREVIFDRGQRVDTLRPGQGVGLAVAREITEQYEGKIVAGESMLGGARMEVIFGRQHSAPKDE

This experiment covers variants of B1. Put plainly: enrichment ratio after two sorts for PhoP signalling (ratio (wild type AVST 3.29)); higher = more functional. Particulars: with PhoP (E. coli).
For TYKT, the enrichment ratio is no more than 0.25.
Take YIFI: the enrichment ratio was no more than 0.25.
Consider YSQP, for which the enrichment ratio is no more than 0.25.
As for NPIY, the figure is no more than 0.25; as for VTTI, 2.22.
The same measure for EMPG: no more than 0.25; for YANI: no more than 0.25.
DPYV: the enrichment ratio came out at 2.59.
On to DYNH, for which the enrichment ratio was no more than 0.25.
Take ATDC: the enrichment ratio is no more than 0.25.
For PNCF, the enrichment ratio was no more than 0.25.
On to VDRA, for which the enrichment ratio is no more than 0.25.
As to NSKI, the enrichment ratio was no more than 0.25.
Regarding DYSY, the enrichment ratio was no more than 0.25.
On to PKSV, for which the enrichment ratio was no more than 0.25.
In the case of TDKN, the enrichment ratio was no more than 0.25.
As to VGAC, the enrichment ratio is 0.664.
Turning to PTFM, the enrichment ratio is no more than 0.25.
Regarding MFIL, the enrichment ratio was no more than 0.25.
Take MFYA: the enrichment ratio is no more than 0.25.
Regarding RICP, the enrichment ratio is no more than 0.25.
Regarding ETIL, the enrichment ratio was no more than 0.25.
As to MAIM, the enrichment ratio was no more than 0.25.
Regarding WLCC, the enrichment ratio is no more than 0.25.
As to HSDG, the enrichment ratio is no more than 0.25.
With IKAW, the enrichment ratio was no more than 0.25.
As for TNCE, the enrichment ratio was no more than 0.25.
On to DDAW, for which the enrichment ratio is no more than 0.25.
Turning to RVMP, the enrichment ratio is no more than 0.25.
For LNAC, the enrichment ratio is no more than 0.25.
As for GHPC, the enrichment ratio was no more than 0.25.
Turning to NCYK, the enrichment ratio was no more than 0.25.
The same measure for SRTR: no more than 0.25; for ASMF: 5.95; for FCIC: no more than 0.25.
In the case of DKCR, the enrichment ratio is no more than 0.25.
Consider VLQI, for which the enrichment ratio was no more than 0.25.
VLKC: the enrichment ratio was no more than 0.25.
Turning to VKAY, the enrichment ratio was found to be 0.987.
As for AHAY, the enrichment ratio stood at 1.08.
With HNTK, the enrichment ratio is no more than 0.25.
The same measure for VNGG: no more than 0.25.
Turning to SFDL, the enrichment ratio was no more than 0.25.
On to GHQI, for which the enrichment ratio was no more than 0.25.
The same measure for LNQR: no more than 0.25; for RGSP: no more than 0.25; for VQKP: no more than 0.25.
In the case of SCQL, the enrichment ratio came to 9.36.
Consider GVCS, for which the enrichment ratio came to 5.96.
As for TGKH, the enrichment ratio is no more than 0.25.
As for GRTV, the figure is no more than 0.25; as for DCVE, no more than 0.25; as for GFLV, no more than 0.25.
With KSRK, the enrichment ratio is no more than 0.25.
As to TPAA, the enrichment ratio is no more than 0.25.
Turning to MKNI, the enrichment ratio is no more than 0.25.
On to LWKD, for which the enrichment ratio is no more than 0.25.
For the variant HIPM, the enrichment ratio was no more than 0.25.
Take FAPN: the enrichment ratio was no more than 0.25.
With VQIS, the enrichment ratio is no more than 0.25.
Regarding QACG, the enrichment ratio is no more than 0.25.
Regarding SNYC, the enrichment ratio is no more than 0.25.
On to SPFY, for which the enrichment ratio was no more than 0.25.
For WRSM, the enrichment ratio is no more than 0.25.
Consider NDPA, for which the enrichment ratio is no more than 0.25.
As for VGGI, the figure is 0.91.
The same measure for ATGD: no more than 0.25; for DHFK: no more than 0.25.
With HDNL, the enrichment ratio is no more than 0.25.
Turning to INHG, the enrichment ratio was no more than 0.25.
For PECG, the enrichment ratio is no more than 0.25.
As to PRYL, the enrichment ratio is no more than 0.25.
As for FQDS, the figure is no more than 0.25.
As for MHKN, the enrichment ratio is no more than 0.25.
The same measure for WNPF: no more than 0.25; for FKKT: no more than 0.25; for YCGG: no more than 0.25.
For THLH, the enrichment ratio stood at 5.97.
On to CIKP, for which the enrichment ratio was no more than 0.25.
The same measure for VARP: no more than 0.25.
For the variant DWTY, the enrichment ratio is no more than 0.25.
Consider GSCS, for which the enrichment ratio worked out at 5.76.
With IACH, the enrichment ratio is no more than 0.25.
On to SKWC, for which the enrichment ratio was no more than 0.25.
The same measure for GMRY: no more than 0.25; for TRGF: no more than 0.25.
Consider GRRY, for which the enrichment ratio was no more than 0.25.
In the case of KVPK, the enrichment ratio was no more than 0.25.
With RFDI, the enrichment ratio is no more than 0.25.
For QKGK, the enrichment ratio is no more than 0.25.
For PKYK, the enrichment ratio was no more than 0.25.
Regarding FQIG, the enrichment ratio was no more than 0.25.
Regarding PWSW, the enrichment ratio was no more than 0.25.
In the case of VHII, the enrichment ratio is no more than 0.25.
On to IDGH, for which the enrichment ratio is no more than 0.25.
The same measure for QCNY: 4.56.
MSNH: the enrichment ratio was no more than 0.25.
Turning to IEDW, the enrichment ratio was no more than 0.25.
Regarding PCTM, the enrichment ratio is no more than 0.25.
In the case of PMHS, the enrichment ratio is no more than 0.25.
In the case of LFDL, the enrichment ratio was no more than 0.25.
Take LEVH: the enrichment ratio is 1.93.
Consider ERCC, for which the enrichment ratio was no more than 0.25.
For YIRE, the enrichment ratio was no more than 0.25.
As to QGPI, the enrichment ratio was no more than 0.25.
As for EHWI, the figure is no more than 0.25; as for ATAQ, 8.57.
HPWP: the enrichment ratio was no more than 0.25.
Take HHSD: the enrichment ratio was no more than 0.25.
With NVKA, the enrichment ratio is no more than 0.25.
On to MYAQ, for which the enrichment ratio was no more than 0.25.
The same measure for SWPY: no more than 0.25; for EKPG: no more than 0.25; for NDHQ: no more than 0.25.
As for VRDV, the figure is no more than 0.25; as for NGDR, no more than 0.25; as for TADR, no more than 0.25.
For the variant PIAF, the enrichment ratio was no more than 0.25.
As for NETN, the enrichment ratio is no more than 0.25.
Regarding STRC, the enrichment ratio was no more than 0.25.
With VHWG, the enrichment ratio is no more than 0.25.
As to AICL, the enrichment ratio was found to be 17.5.
Regarding EMFR, the enrichment ratio is no more than 0.25.
ICMP: the enrichment ratio is no more than 0.25.
In the case of RMKW, the enrichment ratio is no more than 0.25.
In the case of LLVT, the enrichment ratio is no more than 0.25.
In the case of QAQI, the enrichment ratio is no more than 0.25.
As for NFVG, the enrichment ratio is no more than 0.25.
On to TYGQ, for which the enrichment ratio is no more than 0.25.
For PWRT, the enrichment ratio is no more than 0.25.
MDCD: the enrichment ratio was no more than 0.25.
Consider KLFC, for which the enrichment ratio is no more than 0.25.
For the variant WGPQ, the enrichment ratio is no more than 0.25.
On to NHDT, for which the enrichment ratio is no more than 0.25.
Regarding RHDM, the enrichment ratio was no more than 0.25.
Take PHQR: the enrichment ratio is no more than 0.25.
Consider PCLF, for which the enrichment ratio is no more than 0.25.
As to LHLR, the enrichment ratio was no more than 0.25.
For the variant YCRQ, the enrichment ratio was no more than 0.25.
Take SLNS: the enrichment ratio is no more than 0.25.
For MSCH, the enrichment ratio was 4.92.
On to DHPS, for which the enrichment ratio is no more than 0.25.
As for KFEF, the enrichment ratio is no more than 0.25.
PTFQ: the enrichment ratio was no more than 0.25.
On to APAR, for which the enrichment ratio was no more than 0.25.
For DCFS, the enrichment ratio is no more than 0.25.
As to YNTN, the enrichment ratio was no more than 0.25.
On to PNVK, for which the enrichment ratio worked out at 2.33.
For the variant KFIQ, the enrichment ratio was no more than 0.25.
As for ADDR, the figure is no more than 0.25; as for NHHG, no more than 0.25; as for EIVI, no more than 0.25.
As to FDQG, the enrichment ratio was no more than 0.25.
Take TSMY: the enrichment ratio turned out to be 12.3.
On to KCLD, for which the enrichment ratio was no more than 0.25.
The same measure for YRLS: no more than 0.25; for IMRI: no more than 0.25.
Regarding LKRR, the enrichment ratio is no more than 0.25.
Regarding SEMF, the enrichment ratio turned out to be 20.6.
The same measure for KDNY: no more than 0.25.
VPMC: the enrichment ratio is no more than 0.25.
Regarding EAQQ, the enrichment ratio is no more than 0.25.
As to RMTH, the enrichment ratio is no more than 0.25.
Take EQDV: the enrichment ratio was no more than 0.25.
As for AAPC, the figure is 0.676.
In the case of LIKT, the enrichment ratio is no more than 0.25.
With DFSN, the enrichment ratio was no more than 0.25.
As for YLHM, the enrichment ratio was no more than 0.25.
Consider ITMH, for which the enrichment ratio is no more than 0.25.
For the variant EQCI, the enrichment ratio is no more than 0.25.
Regarding VIQH, the enrichment ratio is no more than 0.25.
Regarding YDYK, the enrichment ratio is no more than 0.25.
On to TVLS, for which the enrichment ratio was 2.02.
In the case of KQHK, the enrichment ratio is no more than 0.25.
The same measure for FWIS: no more than 0.25.
The same measure for LTPP: no more than 0.25; for GEMR: no more than 0.25; for QPNP: no more than 0.25.
With IGSS, the enrichment ratio is no more than 0.25.
As for AMKS, the figure is no more than 0.25; as for MGMS, no more than 0.25; as for TTKE, no more than 0.25.
For the variant CQNV, the enrichment ratio was no more than 0.25.
Take LSTK: the enrichment ratio was no more than 0.25.
As for DSCL, the enrichment ratio was no more than 0.25.
For the variant QFHW, the enrichment ratio is no more than 0.25.
Consider HKLF, for which the enrichment ratio is no more than 0.25.
Take NRKL: the enrichment ratio was no more than 0.25.
As to TKSN, the enrichment ratio worked out at 1.74.
In the case of FWLI, the enrichment ratio was no more than 0.25.
Consider VGGS, for which the enrichment ratio is no more than 0.25.
As to KVWD, the enrichment ratio is no more than 0.25.
As for RGCS, the enrichment ratio came out at 0.323.
Regarding RIHN, the enrichment ratio is no more than 0.25.
YSYM: the enrichment ratio is no more than 0.25.
